Source: the supplement of paper PMC4604168 (melanoma cell lines)
This is one part of the list. Single values are uncertain, as repeats are few or missing.

Each compound was assayed on SkMel28 (assay: cell count relative to DMSO control; melanoma cells; higher = more viable cells). Conditions: library dose: standard library concentration; 72 h.
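Note: cells treated in 1,536-well plates, then fixed and DAPI-stained, with nuclei counted from automated high-throughput microscope images.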

SMILES | cell count [%]
C[C@]12O[C@H](C[C@]1(O)CO)n1c3ccccc3c3c4c(c5c6ccccc6n2c5c31)CNC4=O [Lestaurtinib] + O=C(Nc1cccc(Cl)c1)Nc1ncc(CCNc2ncnc3ccsc23)s1 [SNS314] (first compound 0.02 µM, partner dose 0.004 µM) | 35
N.N.[Cl][Pt][Cl] [cisplatin] + CO[C@H]1C[C@@H]2CC[C@@H](C)[C@@](O)(O2)C(=O)C(=O)N2CCCC[C@H]2C(=O)O[C@H]([C@H](C)C[C@@H]2CC[C@@H](OCCO)[C@H](OC)C2)CC(=O)[C@H](C)/C=C(\C)[C@@H](O)[C@@H](OC)C(=O)[C@H](C)C[C@H](C)/C=C/C=C/C=C/1C [everolimus] (first compound 8 µM, partner dose 0.1 µM) | 33.3
C[C@]12O[C@H](C[C@]1(O)CO)n1c3ccccc3c3c4c(c5c6ccccc6n2c5c31)CNC4=O [Lestaurtinib] + NC(=O)Nc1cc(-c2cccc(F)c2)sc1C(=O)N[C@H]1CCCNC1 [AZD7762] (first compound 0.02 µM, partner dose 0.1 µM) | 44.1
C[As](C)SC[C@H](NC(=O)CC[C@H](N)C(=O)O)C(=O)NCC(=O)O [Darinaparsin] + Oc1nc(-c2ccc(C(F)(F)F)cc2)nc2c1CSCC2 [XAV939] (first compound 2 µM, partner dose 10 µM) | 70
C[As](C)SC[C@H](NC(=O)CC[C@H](N)C(=O)O)C(=O)NCC(=O)O [Darinaparsin] + COc1ccc2c(c1)CCC1C2CCC2(C)C(NCCCCCCN3C(=O)C=CC3=O)CCC12 [U73122] (first compound 2 µM, partner dose 2 µM) | 83.4
C[C@]12O[C@H](C[C@]1(O)CO)n1c3ccccc3c3c4c(c5c6ccccc6n2c5c31)CNC4=O [Lestaurtinib] + O=C(O)c1ccc(-c2c[nH]c3ncc(-c4ccccc4)cc23)cc1C1CCCC1 [GSK650394] (first compound 0.02 µM, partner dose 0.8 µM) | 56.9
Cn1cc(C2=C(c3cn(C4CCN(Cc5ccccn5)CC4)c4ccccc34)C(=O)NC2=O)c2ccccc21 [Enzastaurin] + C=C(c1ccc(C(=O)O)cc1)c1cc2c(cc1C)C(C)(C)CCC2(C)C [Bexarotene] (first compound 4 µM, partner dose 10 µM) | 89.6
N.N.[Cl][Pt][Cl] [cisplatin] + CO[C@@H]1[C@H](N(C)C(=O)c2ccccc2)C[C@H]2O[C@]1(C)n1c3ccccc3c3c4c(c5c6ccccc6n2c5c31)C(=O)NC4 [Midostaurin] (first compound 8 µM, partner dose 0.4 µM) | 27.6
Cn1cc(C2=C(c3cn(C4CCN(Cc5ccccn5)CC4)c4ccccc34)C(=O)NC2=O)c2ccccc21 [Enzastaurin] + CNC(=O)c1cc(Oc2ccc(NC(=O)Nc3ccc(Cl)c(C(F)(F)F)c3)cc2)ccn1 [sorafenib] (first compound 4 µM, partner dose 2 µM) | 97.2
Cn1cc(C2=C(c3cn(C4CCN(Cc5ccccn5)CC4)c4ccccc34)C(=O)NC2=O)c2ccccc21 [Enzastaurin] + CC(C)C[C@H](NC(=O)[C@H](Cc1ccccc1)NC(=O)c1cnccn1)B(O)O [Bortezomib] (first compound 4 µM, partner dose 0.005 µM) | 22.4
Cn1cc(C2=C(c3cn(C4CCN(Cc5ccccn5)CC4)c4ccccc34)C(=O)NC2=O)c2ccccc21 [Enzastaurin] + Cc1cc(Nc2cc(N3CCN(C)CC3)nc(/C=C/c3ccccc3)n2)n[nH]1 [ENMD2076] (first compound 4 µM, partner dose 0.2 µM) | 45.7
C[As](C)SC[C@H](NC(=O)CC[C@H](N)C(=O)O)C(=O)NCC(=O)O [Darinaparsin] + Cn1cc(/C=C2\C(=O)Nc3cccnc32)c2ccccc21 [GW441756] (first compound 2 µM, partner dose 2 µM) | 71.7
C[As](C)SC[C@H](NC(=O)CC[C@H](N)C(=O)O)C(=O)NCC(=O)O [Darinaparsin] + CC(C)(C)c1cnc(CSc2cnc(NC(=O)C3CCNCC3)s2)o1 [SNS-032] (first compound 2 µM, partner dose 0.05 µM) | 50.3
